To fix the notation:
T1: TRAF2, Q12933
T1 chain: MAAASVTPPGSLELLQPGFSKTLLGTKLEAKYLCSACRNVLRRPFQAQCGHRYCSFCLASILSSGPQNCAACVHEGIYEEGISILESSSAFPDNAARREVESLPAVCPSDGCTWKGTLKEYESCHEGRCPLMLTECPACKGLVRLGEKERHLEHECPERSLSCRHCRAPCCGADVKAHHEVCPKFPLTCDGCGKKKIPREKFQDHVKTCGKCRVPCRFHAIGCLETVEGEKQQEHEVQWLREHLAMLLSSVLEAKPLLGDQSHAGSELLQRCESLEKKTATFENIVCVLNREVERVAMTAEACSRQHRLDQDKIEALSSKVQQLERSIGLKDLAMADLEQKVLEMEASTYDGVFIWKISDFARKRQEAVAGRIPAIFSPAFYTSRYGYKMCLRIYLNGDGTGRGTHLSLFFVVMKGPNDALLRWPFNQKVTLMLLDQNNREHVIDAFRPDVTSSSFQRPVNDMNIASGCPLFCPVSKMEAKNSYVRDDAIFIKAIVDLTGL

B1: traf2_out_5_189_2315 (protein)
chain: SAREEEQKALNEKAKEIGKEVTKLINEMKKEGKSWEEIAEKMLEKMKTLPVDDAALYSGIFYSIMLGEAIANNDEKLKEIAEKFREKAKELIKEKEKKEA
B2: traf2_out_17_162_1601 (protein)
chain: SELEKKKEEIEKELEELKKERKELEEKLKNIENLTKEEISDLLVEASEKRRKALELIEELEELKEELDEEFYEEKKEEAEEIAEEFQKIANKLYEALLKK
B3: traf2_out_11_169_805 (protein)
chain: EEEEKNRKINDFALELNDKAVEKLKEEALKLAKEAGLDVAEVEKIFEENKGKSLSAVAAALIAYFKSKGAEEAAAKVLELYEKLKEEINKKSTEKIKELE
B4: traf2_out_1_158_914 (protein)
chain: DTKRNLILAVVRLVGKDAIDSAKEAGDEKLAKALKEVVEKIEKAVRELLIEKNKSVEEVIEEIKKIAEEAQKKVDPKTAKAIKTLARQIISGIRQVDKLM
B5: traf2_out_20_3_2063 (protein)
chain: AELEAQLEAELQAALELLEEAAKLADEETAARLKELRERLEASRELSPEDRLVELSEIKRELLRLAEEARKEGKEELAKLLEEAADELNRAMQLTYQIIQ
B6: traf2_out_17_162_1499 (protein)
chain: AATEAKLKALKKELEKLKKKLKELKKKLPNLPKMSKEELTDLLVEVSELKREARRLAEELKKLAKETKSKEAKKLLKEAEKLAEEAQKIANEVYKVLEAK
B7: traf2_out_17_162_1591 (protein)
chain: SELEEEIEEIERELEELEEELKRLKEKLKNIEKLSKEELTDLLVEASEARRRARELLERIRSLREELPEELYEELAERAERLAEEFQRIANAFYKELEKK
B8: traf2_out_8_15_2550 (protein)
chain: SIEEAAEKDIERLREHSDGDEESLIRTLLGMAKAELRYAKILKEEGRKEEALRTLEAARIYAERALELARAAGSPDLAAIEAEVEALKKEIEELEKEIKE
B9: traf2_out_6_156_2456 (protein)
chain: ALEEIKKETKEKIEEEIKKLSKASEEKKISYINDIAGAVYRGLQRAREAGASLEEIKAFGEELLKVAEEEAEKAGLDEDTKNLLLSSLNAVFEVAIEEAK
B10: traf2_out_18_167_1873 (protein)
chain: SEELDKEYEELTDKLVEYSEIRRALREILEALERSREEARALLEAEVAKRPDSEVLKEALEVFETKSDEEFRAFLEKKAEELQKKANEAYKKLEELEKLK
B11: traf2_out_11_131_661 (protein)
chain: MDAVAMAKSVAARVDERLALAKTLSPEERTRLARQALDSIEALAEYLTSHVSEMSKEDVEEAVKILRASAKKVLAADPSVAEDVKEVEKALKKLLEAAKA
B12: traf2_out_19_16_1990 (protein)
chain: SAEEAKKLEEKMKEYLEKALELAKEAVENLDKLSREELMDKLVEISELIRKAKEALQKYLELAKDNPEHRKEVTAEFDKKLDEIQKLMTIIVDKILEKRK
B13: traf2_out_9_166_2603 (protein)
chain: RTDKQYEVIKKYTSEVAKQRQKALELLKKIGAPQELIEEVNEIMNDLLTTLFSNEEAIEKLKKKIEELKKKPEYQEVAEELEKALDAVKEGRKELAEINA
B14: traf2_out_17_162_1609 (protein)
chain: SELEKKKEKLKKKLEELKKKLKELTEKAKNIEKLSKEELSDLLVEASEAKREALEALEEIEKLKEKLDPEEYEKLKKEFEELAEEFQRLANIFYKELEKK
B15: traf2_out_13_95_1161 (protein)
chain: NPETAKKIMEVADEMLDKSLALLEELLKIAKKKGIAEEEIKEVIHAAKYHSINEAIHLLKELAKKYPELKEELEATIKELEALRREAGRRVAEILKEAEE
B16: traf2_out_17_178_1722 (protein)
chain: TKEEYRARISELTDRLIDLAEEAAARLLALARAEGTLSPAELAALEAARRRGSANDTLALMRRAAPRLRTRAEAEALLAEFERRSRELAREIAAAYAKYE
B17: traf2_out_17_35_1758 (protein)
chain: KEEERKTFLEQAKRHEELAKLVKEAIEELKKNKDDKEKQKEILEKLLEELKKAGANEQSIHLVQEAIESGDLEEALKLLEEVRERHEVAAEGLRLAAERV
B18: traf2_out_9_108_2590 (protein)
chain: MTEEEKLEEIFEKVKELVEEALEEFDFPEDLREALEASMKQAEELYKQGEKRTAIVLLAIDLASVASELGEEVVEWVLKRLEEIDERAASAARRRVELLK
B19: traf2_out_16_104_1376 (protein)
chain: SAATDAAFQAIIARLEAIAERAQRLANELMKLYEKASPEEKEKISDALVEVSELRRRALAAAEAVRQAQAAGGDLAEAQATLAELEARLAEAEARVEELK
B20: traf2_out_17_162_1621 (protein)
chain: MSIEEKLAEFEKKLAELEKKLKELEEKLKNIKELSKEELTDLLVEASEARREAREAIVELEELAGEIPEERYAELKARFEELAEKFQRIANKFYKELEKK
B21: traf2_out_11_79_933 (protein)
chain: EEKRKELLEKLEEAKKKLEELIKKMEEGTISEEEREKLLEEIERLLQRAAMLALELGLSDVLVEISEAKRHVRLAYSGDLESLKKALEEVEKAIELLKKE
B22: traf2_out_14_149_1246 (protein)
chain: SAEAELLRKAAELDEEIAKALEEILKLLEAGKLEEALKALEKAIEEARKRGEELGVSTSMLFDMEHILELLKKDPEEALKATREAAKRARDAAEVLRSIA
B23: traf2_out_16_177_1464 (protein)
chain: KRSEVMDRILILSHLAKAAEYLLEGKPELAAEHLERAREEAEEAGDEEGLALIERIEALAAEDTPEARAELAELRRELTRRAGELVEEAEKLIKEEAEKE
B24: traf2_out_13_95_1214 (protein)
chain: SAEANAELREVAREYTDRAEAVIDALAAALAPDPEVQPDMDAIRAAFRRNGVRQAIALIRAAAARHPEHKADFDAAAAELEAIRREAGRRFAEILKRDEE
B25: traf2_out_20_3_2185 (protein)
chain: SELEEELEKKLEEALKLIEEAAKLADPETAKRLEELRKRLEKSRELSYEDRLVELSEIRRELLRLAEEAKAAGKDELAAVLEEAADALNKAMNLVYKIIE
B26: traf2_out_20_3_2101 (protein)
chain: SELEEEYERELERALALLAEAAALADPETAARLEALRARVEASRSLPPTDRLVELSAVRREVLLLAQEARAAGDAELAAVLEAAADALNRAMNLVMKIIE
B27: traf2_out_5_86_2370 (protein)
chain: EEERRDAAADRKTQVLIDSINKVLSLLNSKGLNADSTYEILKLFNKMLDPEKREESKEKIREILKKSGLSEEEIEEILEELEKIVDDTNAKLAAIDAELA
B28: traf2_out_12_50_977 (protein)
chain: SMEEEEKEENERFREEADRILDRRDELWAETGGDVEAFAAKLLEIAKESLEDAKLARSVARAKLSELLQKGEDTSVIAAAIDEIDEIEEELEEKKEKEEE
B29: traf2_out_13_95_1118 (protein)
chain: SREVAEKIMEIADEMEEKILEVLEKLLEIAKKKGIAEEEIQKILDLAKHGTSNEVIHELKELSKKYPELKEEFDAAIKEIEAIRREAGRKVAEILKEEEE

The full ranking holds about 1,800 sequences; the median of “median log2 fold change of GCK-ALFA target abundance (FLAG IP / Myc IP barcode read proportion)” is about 0.14, and the lowest 2% start at about -0.84. The list shows a part of the results.

The target of this experiment is T1, TRAF2, Q12933. Nature of the experiment: median log2 fold change of GCK-ALFA target abundance (FLAG IP / Myc IP barcode read proportion) (log2 ratio); each designed protein is fused to an ALFA-tag nanobody in HEK293 cells to bring the named protein to FLAG-tagged glucokinase (GCK); Myc marks an untargeted standard; higher = target protein stabilised (more abundant). The following applies: target protein: 3xFLAG-MCP-GCK-ALFA reporter; HEK293 landing pad (RPLP). A digest of the protocol: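 Sequencing of reverse-transcribed, amplified circular RNA barcodes from anti-FLAG and anti-Myc immunoprecipitates provided the readout for an ALFA-nanobody-fused binder library recombined into HEK293 landing-pad cells. Those cells were induced with 2 μg mL^−1 doxycycline, transfected with a plasmid expressing a FLAG-tagged target and a Myc-tagged standard, and lysed after 48 h. Target abundance is the per-binder median log2 ratio of FLAG to Myc barcode read proportions. Only barcodes at a proportion of ≥10^−7 in both replicates and binders with ≥3 barcodes per replicate were kept, with a 10^−6 pseudocount added before the two replicates were pooled.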
Consider B1, for which the “median log2 fold change” value came to 0.387.
With B2, the “median log2 fold change” value was 0.308.
On to B3, for which the “median log2 fold change” value was 0.261.
As for B4, the “median log2 fold change” value was -0.512.
Turning to B5, the “median log2 fold change” value was 0.353.
The value for B6 was 0.388; that for B7 was 0.0293.
With B8, the “median log2 fold change” value came to 0.0856.
On to B9, for which the “median log2 fold change” value was determined as 0.184.
The value for B10 was 0.0619; that for B11 was 0.0951.
The value for B12 was -0.19; that for B13 was 0.161.
For the molecule B14, the “median log2 fold change” value was 0.154.
The value for B15 was -0.211; that for B16 was -0.153; that for B17 was 0.0114.
Take B18: the “median log2 fold change” value amounted to 0.0837.
To B19 belongs 0.417; to B20, 0.244; to B21, -0.0578.
The value for B22 was 0.112; that for B23 was 0.0924.
As to B24, the “median log2 fold change” value is -0.892.
In the case of B25, the “median log2 fold change” value turned out to be 0.269.
Take B26: the “median log2 fold change” value was -0.246.
B27: the “median log2 fold change” value is -0.0117.
With B28, the “median log2 fold change” value came to 0.152.
B29: the “median log2 fold change” value is 0.201.

(Values after the supplement of paper PMC12632987.)
